Screen size: about 310,000 compounds; about 2,200 (0.71%) showed an effect of 50% or more. The effect is printed as a negative number. The list shows a part of the results.
target: human ether-à-go-go-related gene (hERG) potassium channel (human, UniProt Q12809); assay: primary screen, population patch clamp on CHO cells stably expressing hERG
Sequence (Q12809 whole entry, looked up): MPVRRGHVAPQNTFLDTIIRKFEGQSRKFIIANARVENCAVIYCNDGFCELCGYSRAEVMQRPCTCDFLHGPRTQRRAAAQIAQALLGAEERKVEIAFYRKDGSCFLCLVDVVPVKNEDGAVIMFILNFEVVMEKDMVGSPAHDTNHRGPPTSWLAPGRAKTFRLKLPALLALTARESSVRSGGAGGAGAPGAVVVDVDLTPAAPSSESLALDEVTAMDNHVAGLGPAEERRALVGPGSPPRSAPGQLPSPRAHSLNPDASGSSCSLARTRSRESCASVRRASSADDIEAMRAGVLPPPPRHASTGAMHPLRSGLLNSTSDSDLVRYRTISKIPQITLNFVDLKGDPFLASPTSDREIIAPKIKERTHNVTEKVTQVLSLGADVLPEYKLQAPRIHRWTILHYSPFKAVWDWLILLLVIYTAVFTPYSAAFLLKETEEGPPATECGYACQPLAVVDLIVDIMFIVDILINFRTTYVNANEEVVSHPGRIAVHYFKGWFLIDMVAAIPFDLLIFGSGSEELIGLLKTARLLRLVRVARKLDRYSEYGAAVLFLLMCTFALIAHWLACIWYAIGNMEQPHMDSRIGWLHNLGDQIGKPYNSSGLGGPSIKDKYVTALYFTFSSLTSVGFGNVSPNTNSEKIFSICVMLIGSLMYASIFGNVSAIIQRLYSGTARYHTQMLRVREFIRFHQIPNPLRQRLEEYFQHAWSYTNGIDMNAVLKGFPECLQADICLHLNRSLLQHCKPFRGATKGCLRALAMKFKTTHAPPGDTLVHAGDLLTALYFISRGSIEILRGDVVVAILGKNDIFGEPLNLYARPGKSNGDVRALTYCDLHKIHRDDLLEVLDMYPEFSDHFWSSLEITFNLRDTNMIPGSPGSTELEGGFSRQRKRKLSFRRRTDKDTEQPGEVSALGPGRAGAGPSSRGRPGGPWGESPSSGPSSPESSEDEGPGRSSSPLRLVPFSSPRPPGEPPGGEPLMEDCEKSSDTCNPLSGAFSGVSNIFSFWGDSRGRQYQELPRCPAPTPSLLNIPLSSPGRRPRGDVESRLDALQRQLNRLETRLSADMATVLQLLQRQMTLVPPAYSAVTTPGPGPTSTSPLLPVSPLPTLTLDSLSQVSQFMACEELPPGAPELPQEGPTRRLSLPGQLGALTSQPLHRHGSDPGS

| Compound | hERG current change (%, negative = inhibition) at 1uM |
| --- | --- |
| COc1ccc(S(=O)(=O)c2ccc(O)cc2)cc1 | 0.81% |
| CN(C)CC(=O)c1c(N)n(Cc2ccccc2)c(=O)n(C)c1=O | 8.34% |
| COc1ccc(NC(=O)c2cccnn2)cc1 | 16.6% |
| CCOc1ccc(OCCC(=O)N(CCC2=CCCCC2)c2c(N)n(Cc3ccccc3)c(=O)[nH]c2=O)cc1 | 8.95% |
| Cc1ccccc1N=C1SCC(=O)N1Cc1ccccc1 | 5.03% |
| O=C(CSc1nc2ccccc2o1)N1c2ccccc2Sc2ccc(C(F)(F)F)cc21 | 10.6% |
| c1ccc(C2=NN(c3ccccc3)C(c3ccco3)C2)cc1 (centres unmarked) | 13.5% |
| O=C(Nc1cccnc1)C1CCCN(c2ncnc3c2nc2n3CCCCC2)C1 (centres unmarked) | -8.21% |
| CCOC(=O)c1c(C)n(C)c2ccc(OC(=O)c3ccc(N4C(=O)CCC4=O)cc3)cc12 | 8.82% |
| Cc1cc(C)n(CC(O)COc2ccc(Cl)cc2Cl)n1 (centres unmarked) | 7.74% |
| O=C(c1cccnc1Cl)N(Cc1ccccc1)Cc1ccccc1 | -2.21% |
| CCc1nc(SCc2ccc(F)cc2)n[nH]1 | 9.14% |
| CCc1cc2c(N3CCN(C(=O)c4ccco4)CC3)ncnc2s1 | -20.1% |
| COc1ccc(N(CC(=O)N2CCC(C(N)=O)CC2)S(=O)(=O)c2ccccc2)cc1 | 11.8% |
| O=C(COc1cccc(-n2cnnn2)c1)Nc1ccc([N+](=O)[O-])cc1 | -23% |
| COc1ccc2[nH]c(=O)c(-c3nnn(-c4ccccc4)n3)cc2c1 | 7.29% |
| O=C(COc1ccc(Cl)cc1)NNC(=S)NCc1ccccc1 | 14.2% |
| NC(=O)CSc1nnc(NC(=O)c2ccc(S(=O)(=O)N3CCOCC3)cc2)s1 | 5.26% |
| CC(=O)N(c1ccc(Cl)cc1)c1nc(C)cc(C)c1C#N | 8.09% |
| O=C(c1ccccc1S(=O)(=O)NCc1ccccc1)N1CCCCC1 | -0.529% |
| O=C(C1CC(=O)N(c2ccc(Br)cc2)C1)N1CCCC1 (centres unmarked) | 4.46% |
| C1CCN(c2nc(N3CCCCC3)nc(N3CCNCC3)n2)CC1 | 2.68% |

| Compound | hERG current change (%, negative = inhibition) at 1uM |
| --- | --- |
| COc1ccc(Nc2nnc(SCc3cc(=O)n4ccsc4n3)s2)cc1 | -38% |
| NC(=O)[C@H](Cc1cc2ccccc2s1)NC(=O)[C@@H]1CC2(CC(c3cccc(NC(=O)[C@@H]4CCC(=O)N4)c3)=NO2)CN1C(=O)/C=C/Sc1ccccc1 (some centres unmarked) | 12.2% |
| O=C(CNC(=O)c1ccc(Oc2ccccc2)cc1)OCc1ccc(Br)cc1 | -1.37% |
| O=C(Cn1ccc([N+](=O)[O-])n1)NCC1CCCO1 (centres unmarked) | 20.9% |
| CCCc1cc(Nc2ccccc2OCC)n2ncnc2n1 | -11.1% |
| O=C(CN(c1ccccn1)S(=O)(=O)c1ccccc1)Nc1ccccc1 | 8.64% |
| CN(CC1CCCN(CCc2ccc(Cl)cc2)C1)C(=O)c1ccc2nc[nH]c2c1 (centres unmarked) | -6.07% |
| COc1ccc(Cl)cc1NC(=O)c1cnccn1 | 13.7% |
| OCCN1CNC(=S)NC1 | 11% |
| Cn1cc(CC(=O)NC2CCCCC2)c2ccccc21 | 21.5% |
| Cn1c(=O)[nH]c(=O)c2c1nc(N/N=C/c1ccncc1)n2Cc1ccc(F)cc1 | 12.1% |
| Cc1ccc(-n2nc(C(=O)O)c3ccccc3c2=O)cc1C | -2.75% |
| Nc1cccc2c1C(=O)N(CC(=O)NC13CC4CC(CC(C4)C1)C3)C2=O | 10.6% |
| CCN(c1cccc(C)c1)S(=O)(=O)c1ccc2c(c1)NC(=O)CCS2 | 10.1% |
| Cc1ccc(Nc2ncccc2C(=O)NCc2cccs2)c(C)c1 | 12.2% |
| COc1ccc2c(c1)[nH]c1c(=O)n(CCc3cnc[nH]3)cnc12 | 0.251% |
| Cc1cc2c(SCC(=O)NC3CCCCC3)ncnc2s1 | 12.9% |
| COc1ccccc1N(C(=O)c1snc(C(N)=O)c1N)C(C(=O)NC1CCCC1)c1ccc2ncccc2c1 (centres unmarked) | 11.6% |
| CC(=O)N1CCc2c(sc(NC(=O)CCS(=O)(=O)c3ccc(C)cc3)c2C#N)C1 | 3.7% |
| O=C(Cn1ncc2c1-c1ccccc1OC2)N(Cc1ccco1)C1CCCCC1 | 11.8% |
| Cc1ccc(OCC(=O)Nc2oc(-c3ccccc3)c(-c3ccccc3)c2C#N)cc1 | 20.1% |
| CC1CN=C(Nc2cccc(S(=O)(=O)N(C)C)c2)S1 (centres unmarked) | 6.85% |
